Experimental data taken from PubChem BioAssay AID1865 (National Center for Advancing Translational Sciences (NCATS), 2009).
Screen size: about 280,000 compounds; about 540 (0.19%) were called active. The inconclusive results got no clear call from the source; some entries with a clear call stand among them for comparison. Calls come from the whole dose curve; as a rule, active = well fitted activation curve with a large enough effect; inconclusive = small, poorly fitted or top-dose-only effect; inactive = flat fitted curve, though single readings scatter. Potencies beside an inconclusive call are fits to weak or partial responses and may not hold up.

Assay: Quantitative High-Throughput Screen for Regulators of Epigenetic Control; note: nearly all actives have a fitted effect of over 60% in size; for GFP activation: % of control where 0% means no effect
Conditions: murine LDR cells, GFP reporter derepression, 30 h; GFP activation: at 53.9 µM (top of the series)
How it was run: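 Readout is the number of GFP-expressing murine LDR cells, counted by cytometry following washing. Cells were treated with compound for 30 h at 37 C; the stably integrated CMV-GFP locus is normally silent.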
Potency is the fitted concentration of half-maximal effect; tags give direction and shape of the fitted curve.

**Q.** For `Cc1cccc(OCC(=O)OCc2cc(=O)n3nc(-c4cccs4)sc3n2)c1`, which “GFP activation” value is on record?
**A.** inactive: 0.833%

**Q.** With `Cc1ccc2nc(COc3cccc(NC(=O)COc4ccccc4F)c3)cc(=O)n2c1` as the compound, how does the Potency read?
**A.** inconclusive: 35.5 µM [activator, single point]

**Q.** Which “GFP activation” value does the source give for `O=C(Cc1cccs1)NCCN1CCOCC1` here?
**A.** inactive: -1.89%

**Q.** Which Potency does the source give for `Cc1nn2c(nc1=O)NNC2(C)C(C)(C)C` (configuration not stated) here?
**A.** inconclusive: 17.8 µM [activator, single point]

**Q.** With `CCC(Sc1nc2ccccc2c2nc(CCc3c(C)n[nH]c3C)nn12)C(=O)Nc1ccc(OC)cc1` (configuration not stated) as the compound, how does the Potency read?
**A.** inconclusive: 35.5 µM [activator, single point]

**Q.** With `N=c1oc2ccccc2cc1-c1nc(-c2ccc(Cl)cc2)cs1` as the compound, how does the Potency read?
**A.** inconclusive: 22.4 µM [activator, single point]

**Q.** Which Potency does the source give for `CCOc1ccc(-c2cc3nc(C4CCN(C(=O)OC(C)(C)C)CC4)c(C(=O)Nc4ccc(C)cc4Cl)cn3n2)cc1` here?
**A.** inconclusive: 35.5 µM [activator, single point]

**Q.** Which Potency does the source give for `O=S(=O)(c1ccc(Br)cc1)c1nnn2c1nc(Nc1cccc(C(F)(F)F)c1)c1sccc12` here?
**A.** inconclusive: 35.5 µM [activator, single point]

**Q.** For `COc1ccc(CCNC(=O)c2ccc(-n3c(C)cc4c3CCCC4)cc2)cc1OC`, which Potency is on record?
**A.** inconclusive: 28.2 µM [activator, single point]

**Q.** With `O=C(Cn1nnc(-c2ccncc2)n1)N1CCc2ccccc21` as the compound, how does the Potency read?
**A.** inconclusive: 31.6 µM [activator, single point]

**Q.** For `Oc1ccccc1/C=N/Nc1nc2ccccc2o1`, which Potency is on record?
**A.** inconclusive: 0.891 µM [activator, full curve, poor fit]

**Q.** For `COc1cc(/C=C2\CC/C(=C\c3ccc(OCCO)c(OC)c3)C2=O)ccc1OCCO`, which Potency is on record?
**A.** inconclusive: 28.2 µM [activator, single point]

**Q.** Which Potency does the source give for `CC(C)Oc1ccc(CNC(=O)Nc2ccc3c(c2)N(C)C(=O)c2ccccc2S3)cc1` here?
**A.** inconclusive: 31.6 µM [activator, single point]

**Q.** Which Potency does the source give for `Cc1ccc(NC(=O)c2c(C(=O)Nc3ccccc3)sc3nc(C)cc(=O)n23)c(C)c1` here?
**A.** inconclusive: 35.5 µM [activator, single point]

**Q.** For `CCc1c(C)c(C#N)c2nc3ccccc3n2c1Cl`, which Potency is on record?
**A.** inconclusive: 5.01 µM [activator, single point]

**Q.** With `S=C(Nc1ccccc1)Nc1nccs1` as the compound, how does the Potency read?
**A.** active: 12.6 µM

**Q.** With `O=c1c2c(-c3ccccc3)csc2ncn1/N=C/c1c2ccccc2cc2ccccc12` as the compound, how does the Potency read?
**A.** inconclusive: 31.6 µM [activator, single point]

**Q.** Which Potency does the source give for `CCOC(=O)c1cccc(-n2nnc3c(sc4nc(C)c(Br)c(C)c43)c2=O)c1` here?
**A.** inconclusive: 12.6 µM [activator, single point]

**Q.** For `COc1cc(NC(=O)c2cc(Cl)ccc2Cl)ccc1NC(=O)c1cc2ccccc2o1`, which Potency is on record?
**A.** inconclusive: 31.6 µM [activator, single point]

**Q.** For `COc1ccccc1C(=O)N=Nc1c(O)[nH]c2ccc([N+](=O)[O-])cc12`, which Potency is on record?
**A.** inconclusive: 35.5 µM [activator, single point]

**Q.** For `Cc1ccccc1NC(=O)Cn1c(=O)n(CCCCCC(=O)NCc2ccccc2Cl)c(=O)c2sccc21`, which Potency is on record?
**A.** inconclusive: 15.8 µM [activator, single point]

**Q.** Which Potency does the source give for `COc1ccc(NC(=O)CN(C)S(=O)(=O)c2ccc(C)cc2)c([N+](=O)[O-])c1` here?
**A.** inconclusive: 31.6 µM [activator, single point]

**Q.** With `Cc1cccc2nc(-c3ccc(N(C)C)cc3)c(Nc3ccc4c(c3)OCO4)n12` as the compound, how does the Potency read?
**A.** inconclusive: 15.8 µM [activator, single point]

**Q.** For `CCOC(=O)c1cc(-c2ccccc2)n(CCC(=O)Nc2ccc(C(F)(F)F)cc2)c1C`, which Potency is on record?
**A.** inconclusive: 17.8 µM [activator, single point]

**Q.** Which Potency does the source give for `O=C(N/N=C/c1ccco1)c1csc2c1CCCC2` here?
**A.** inconclusive: 35.5 µM [activator, single point]

**Q.** Which Potency does the source give for `O=C(NCC12CC3CC(CC(C3)C1)C2)c1nn2c(c1Cl)NC(c1ccco1)CC2C(F)(F)F` (configuration not stated) here?
**A.** inconclusive: 35.5 µM [activator, single point]

**Q.** For `COCCN(Cc1cc2ccc(C)c(C)c2nc1Cl)C(=O)N1CCOCC1`, which Potency is on record?
**A.** inconclusive: 3.55 µM [activator, full curve]

**Q.** With `C[C@H](NC(=O)c1nc[nH]c1C(=O)NC(c1ccccc1)c1ccccc1)C(=O)OC(C)(C)C` as the compound, how does the Potency read?
**A.** inconclusive: 35.5 µM [activator, single point]

**Q.** With `COc1ccccc1OCc1ccc(C(=O)N2CCOCC2)o1` as the compound, how does the Potency read?
**A.** inconclusive: 35.5 µM [activator, single point]

**Q.** With `Cc1c(Cl)cccc1NC(=O)CSc1ncnc2c1cnn2CCc1ccccc1` as the compound, how does the Potency read?
**A.** inconclusive: 35.5 µM [activator, single point]

**Q.** For `COc1ccc(C(=O)NNC(=O)C(=O)Nc2ccc(C)c(Cl)c2)cc1`, which Potency is on record?
**A.** inconclusive: 35.5 µM [activator, single point]

**Q.** For `CC1(C)CN(c2ccc(C(=O)c3ccccc3)cc2)C1=O`, which Potency is on record?
**A.** inconclusive: 6.31 µM [activator, single point]

**Q.** For `O=C(c1ccccc1-c1nc(-c2ccc(F)cc2)no1)N1CCCC1`, which Potency is on record?
**A.** inconclusive: 35.5 µM [activator, single point]

**Q.** With `COCCCn1c(=O)/c(=C\c2ccc(OC(F)F)c(OC)c2)s/c1=C(/C#N)C(=O)NCCOC` as the compound, how does the Potency read?
**A.** inconclusive: 15.8 µM [activator, partial curve]

**Q.** With `CCCCNc1ccc2c3c(cccc13)C(=O)N(CCCC)C2=O` as the compound, how does the Potency read?
**A.** active: 3.16 µM

**Q.** With `CCOCCCn1c(=S)[nH]c2cc(C(=O)NCCOC)ccc2c1=O` as the compound, how does the “GFP activation” value read?
**A.** inactive: -0.195%

**Q.** Which Potency does the source give for `O=C(/C=C/c1ccco1)Oc1cccc2cccnc12` here?
**A.** inconclusive: 15.8 µM [activator, single point]

**Q.** For `CCCCCCCCCCCCCCCC(=O)NCCO`, which Potency is on record?
**A.** inconclusive: 12.6 µM [activator, single point]

**Q.** Which “GFP activation” value does the source give for `COc1ccc(CN(C(=O)CSc2nnc(-c3ccccc3C)o2)c2ccc(F)cc2)cc1` here?
**A.** inactive: 1.4%

**Q.** Which “GFP activation” value does the source give for `O=C(N/N=C/c1cc(Br)ccc1O)c1ccccc1Cl` here?
**A.** inactive: 2.6%

**Q.** For `CCOC(=O)c1ccccc1Nc1cc(C)nc2nc(-c3ccco3)nn12`, which Potency is on record?
**A.** inconclusive: 1.26 µM [activator, full curve]

**Q.** Which “GFP activation” value does the source give for `CC(=O)c1cc(-c2ccccc2)n(CCC(=O)Nc2ccc(C(C)C)cc2)c1C` here?
**A.** inactive: -1.08%

**Q.** For `O=C(NCCCN1CCOCC1)c1cccc(S(=O)(=O)N2CCc3ccccc3C2)c1`, which Potency is on record?
**A.** inconclusive: 35.5 µM [activator, single point]

**Q.** For `O=C(Nc1ccc2ccccc2c1)c1ccc(Cl)cc1Cl`, which “GFP activation” value is on record?
**A.** inactive: 1.05%

**Q.** Which “GFP activation” value does the source give for `Cc1cccc(NNC(N)=S)c1` here?
**A.** inactive: -6.15%

**Q.** With `Cc1ccc(-c2nc3c(c(=O)[nH]c(=O)n3Cc3ccccc3)n2Cc2ccccc2)o1` as the compound, how does the Potency read?
**A.** inconclusive: 28.2 µM [activator, single point]

**Q.** Which Potency does the source give for `CN1C(=O)c2ccccc2Sc2ccc(NC(=O)Cc3c(F)cccc3Cl)cc21` here?
**A.** inconclusive: 28.2 µM [activator, single point]

**Q.** Which Potency does the source give for `CCOC(=O)c1ccc(NC(=O)Nc2ccc3snnc3c2)cc1` here?
**A.** inconclusive: 35.5 µM [activator, single point]

**Q.** With `COc1cc(C=C2C(=O)c3ccccc3C2=O)cc(OC)c1OC` as the compound, how does the Potency read?
**A.** inconclusive: 35.5 µM [activator, single point]

**Q.** With `COc1cccc(C(=O)Nc2cccc3c2ccc2cccn23)c1` as the compound, how does the Potency read?
**A.** inconclusive: 35.5 µM [activator, single point]

**Q.** With `COc1ccc(OC)c(CNC(=O)c2ccccc2NC(=O)c2nsc3ccccc23)c1` as the compound, how does the Potency read?
**A.** inconclusive: 25.1 µM [activator, single point]

**Q.** With `O=C(/C=C/c1ccccc1)Oc1cccc2cccnc12` as the compound, how does the Potency read?
**A.** inconclusive: 35.5 µM [activator, single point]

**Q.** Which Potency does the source give for `Nc1ccc2nc(CCCCCCCCc3nc4ccc(N)cc4[nH]3)[nH]c2c1` here?
**A.** inconclusive: 35.5 µM [activator, single point]

**Q.** Which “GFP activation” value does the source give for `CC/C(O)=C(\C#N)c1nnc2n1CCCCC2` here?
**A.** inactive: -0.943%

**Q.** With `Nc1ncnc(Oc2cccc3cccnc23)c1[N+](=O)[O-]` as the compound, how does the Potency read?
**A.** inconclusive: 28.2 µM [activator, single point]

**Q.** With `CC(C)CN1CN(Cc2ccco2)CNC1=S` as the compound, how does the “GFP activation” value read?
**A.** inactive: -0.943%

**Q.** With `CCCSc1ncc(Cl)c(C(=O)Nc2sc3c(c2C(=O)NCC)CCCC3)n1` as the compound, how does the Potency read?
**A.** active: 4.47 µM

**Q.** For `CCOc1cccc(/C=N/NC(=S)Nc2ccccc2[N+](=O)[O-])c1O`, which “GFP activation” value is on record?
**A.** inactive: 1.15%

**Q.** Which Potency does the source give for `O=S(=O)(c1ccccc1)c1ncc(C(F)(F)F)cc1Cl` here?
**A.** inconclusive: 5.62 µM [activator, single point]

**Q.** For `N#Cc1ccc(CSCC(=O)O)cc1`, which “GFP activation” value is on record?
**A.** inactive: -5.43%

**Q.** For `O=C(CSC(=S)N1CCCCC1)c1c(F)cccc1F`, which Potency is on record?
**A.** inconclusive: 31.6 µM [activator, single point]

**Q.** With `O=[N+]([O-])c1ccc(N/N=C/c2ccc(OCc3cccc4ccccc34)cc2)nc1` as the compound, how does the Potency read?
**A.** inconclusive: 5.62 µM [activator, single point]

**Q.** For `CCCCN(CCCC)Cc1cc2ccccc2c2c1COC2`, which “GFP activation” value is on record?
**A.** inactive: 3.13%

**Q.** For `CCOc1ccc(NC(=O)Cn2cc(C(=O)c3ccc(F)cc3)c(=O)c3cc4c(cc32)OCO4)cc1`, which Potency is on record?
**A.** inconclusive: 25.1 µM [activator, single point]

**Q.** With `COC(=O)c1cn(C(=O)/C=C/c2ccc(OC)c(OC)c2)c2ccccc12` as the compound, how does the Potency read?
**A.** inconclusive: 35.5 µM [activator, single point]

**Q.** For `c1csc(C2Nc3cccc4cccc(c34)N2)c1`, which Potency is on record?
**A.** inconclusive: 3.55 µM [activator, single point]

**Q.** With `COc1ccc(N2C(=O)CS/C2=N\C(=S)Nc2ccccc2)cc1` as the compound, how does the Potency read?
**A.** inconclusive: 15.8 µM [activator, single point]
